According to publication PMC4336329 (PLoS ONE, 2015):
The whole screen tested about 310,000 compounds, of which about 2,200 (0.71%) showed an effect of 50% or more. Effects have a minus sign here. The list shows a part of the results.

The molecules below were run against human ether-à-go-go-related gene (hERG) potassium channel (human, UniProt Q12809) (assay: primary screen, population patch clamp on CHO cells stably expressing hERG).
Sequence of human ether-à-go-go-related gene (hERG) potassium channel (Q12809 whole entry, looked up): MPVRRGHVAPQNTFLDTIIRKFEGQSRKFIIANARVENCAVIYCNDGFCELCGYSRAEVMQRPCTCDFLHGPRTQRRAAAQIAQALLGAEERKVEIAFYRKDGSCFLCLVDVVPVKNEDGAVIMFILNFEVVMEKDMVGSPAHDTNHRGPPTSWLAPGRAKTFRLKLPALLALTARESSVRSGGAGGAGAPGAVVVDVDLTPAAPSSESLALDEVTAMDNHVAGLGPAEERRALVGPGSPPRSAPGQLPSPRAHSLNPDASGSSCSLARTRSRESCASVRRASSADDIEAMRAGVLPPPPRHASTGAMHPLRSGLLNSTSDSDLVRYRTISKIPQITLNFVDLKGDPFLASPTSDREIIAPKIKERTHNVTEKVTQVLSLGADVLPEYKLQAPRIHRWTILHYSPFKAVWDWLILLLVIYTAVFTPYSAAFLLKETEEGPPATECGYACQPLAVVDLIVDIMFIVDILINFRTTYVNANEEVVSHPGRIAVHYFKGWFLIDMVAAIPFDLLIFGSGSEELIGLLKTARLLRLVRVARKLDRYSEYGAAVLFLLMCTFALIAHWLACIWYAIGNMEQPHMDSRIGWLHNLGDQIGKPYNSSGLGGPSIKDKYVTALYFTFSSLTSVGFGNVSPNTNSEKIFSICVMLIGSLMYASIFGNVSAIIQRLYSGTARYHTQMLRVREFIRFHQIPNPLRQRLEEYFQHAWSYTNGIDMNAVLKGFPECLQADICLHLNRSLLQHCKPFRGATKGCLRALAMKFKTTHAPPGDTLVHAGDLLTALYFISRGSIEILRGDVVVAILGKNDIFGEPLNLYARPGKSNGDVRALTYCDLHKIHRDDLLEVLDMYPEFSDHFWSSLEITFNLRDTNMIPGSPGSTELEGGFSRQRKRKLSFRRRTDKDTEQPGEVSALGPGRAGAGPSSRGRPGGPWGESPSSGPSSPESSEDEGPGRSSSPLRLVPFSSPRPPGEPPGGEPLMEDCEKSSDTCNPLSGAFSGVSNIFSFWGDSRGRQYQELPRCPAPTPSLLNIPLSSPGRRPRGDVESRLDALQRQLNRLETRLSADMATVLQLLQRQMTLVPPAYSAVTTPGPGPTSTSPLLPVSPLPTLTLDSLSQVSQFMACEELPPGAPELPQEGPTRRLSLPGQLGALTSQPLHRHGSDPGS

| SMILES | hERG current change (%, negative = inhibition) at 1uM [%] |
| --- | --- |
| COc1ccnc(Oc2ccc(F)cc2)c1C(=O)N/C=N/OCc1ccc(Cl)cc1Cl | 20.2 |
| CO/N=C/c1ccc(Sc2ccc(C)cc2)c([N+](=O)[O-])c1 | 8.8 |
| Cc1ccc(S(=O)(=O)N(C)C)cc1NC(=O)C(C)OC(=O)/C=C/c1cccs1 (stereo not shown) | -5.2 |
| O=C(O)C1CCCN1S(=O)(=O)c1ccc(Br)cc1 (stereo not shown) | 4.4 |
| COc1ccc(-c2nc3ccccc3c(=O)n2CC(C)C)cc1 | 17 |
| CCOc1ccc(Nc2oc(-c3cccc(Cl)c3)nc2C#N)cc1 | 20.2 |
| CCO/C=N/c1c(C#N)c2c(c(=S)n1C)COC(C)(C)C2 | 18.8 |
| O=c1c2ccccc2nc(SCc2ccc([N+](=O)[O-])cc2)n1CCCO | 7.99 |
| CN(C)/C=C/C(=O)c1ccc(Oc2ccccc2)cc1 | 13.9 |
| Cc1ccc(C(=O)OCC(=O)Nc2cc(S(C)(=O)=O)ccc2Cl)cc1S(=O)(=O)N1CCCCC1 | -6.53 |
| CCOc1cccc(NC(=O)/C(C#N)=C\c2cccnc2)c1 | 16.4 |
| CN1C(=O)CSc2ccc(NC(=O)NCCC3=CCCCC3)cc21 | 9.65 |
| CC(=O)Nc1nn(C)c2nc(C)cc(C)c12 | 9.38 |
| O=C(NCC(=O)N(c1cccnc1)C(C(=O)NCc1ccco1)c1ccccc1)c1ccco1 (stereo not shown) | 3.6 |
| COCCc1ncc(CN2CCC(C(=O)Nc3cccc(-c4cscn4)c3)CC2)cn1 | 12.2 |
| O=C(CC1NC2CCCCC2NC1=O)Nc1cccc(C(F)(F)F)c1 (stereo not shown) | 4.08 |
| O=C(c1cccs1)N1C2CCC1CC(O)(c1cccnc1)C2 (stereo not shown) | 0.852 |
| C=CCSc1nnc(NC(=O)c2nc(SCC)ncc2Cl)s1 | -4.9 |
| CC(=O)NC(Cc1ccc(C)cc1)C(=O)NC1CCN(c2ncccc2[N+](=O)[O-])CC1 (stereo not shown) | 15.2 |
| COc1ccc(N2CCN(C(=O)C(=O)c3c[nH]c4ccccc34)CC2)cc1 | 19 |
| COc1ccc(CCOC(=O)CNC(=O)c2ccc(Cl)cc2Cl)cc1 | 13.2 |
| CN(C)CCCNC(=O)C(=O)NCC1CCCO1 (stereo not shown) | 11.2 |

| SMILES | hERG current change (%, negative = inhibition) at 1uM [%] |
| --- | --- |
| Cc1ccccc1C(=O)Nc1nnc(CC(=O)N/N=C/c2ccco2)s1 | 4.55 |
| CCOC(=O)CC(=O)CSc1ncnc2c1oc1ccccc12 | 12.4 |
| CCOC(=O)CSc1nc(C)nc2c1sc1nc(C)c(C(C)=O)c(-c3ccc(OC)cc3)c12 | 4.4 |
| CN(C(=O)CC1C(=O)NCCN1Cc1cccc(C(F)(F)F)c1)C1CCOCC1 (stereo not shown) | 15.5 |
| CSc1nnc(CCNS(=O)(=O)c2ccc(Br)cc2)n1C | 12 |
| Cc1cc(Cl)ccc1OCC(=O)NCCCn1ccnc1 | -5.64 |
| Cc1nn(C)c(C)c1S(=O)(=O)N1CCC(C(=O)Nc2ccc3c(c2)OCCO3)CC1 | 12.2 |
| COc1ccc(N2CCN(S(=O)(=O)CCNC(=O)c3ccc4c(c3)OCO4)CC2)cc1 | 11.6 |
| CCCCn1c(Oc2ccc(C(=O)OC)cc2)nc2c1c(=O)n(C)c(=O)n2C | 4.42 |
| Cn1cc(C(=O)c2ccc(Cl)cc2Cl)cc1C(=O)N/N=C(\N)COc1ccc(Cl)cc1Cl | -2.64 |
| N=c1oc2ccccc2cc1-c1nc(-c2ccccc2)cs1 | 3 |
| O=C(CCN1C(=O)c2ccccc2C1=O)Nc1sc2c(c1C(=O)NCC1CCCO1)CCC2 (stereo not shown) | 12.4 |
| CCCc1cc(=O)oc2cc(OCC(=O)N3CCOCC3)c(Cl)cc12 | 11 |
| CC1CCN(C(=O)CN(c2ccc(Oc3ccccc3)cc2)S(C)(=O)=O)CC1 | 7.34 |
| O=C(CCN1C(=O)C2CC=C(Cl)CC2C1=O)NCc1ccco1 (stereo not shown) | 0.455 |
| Cc1ccn(CCNC(=O)C2CCC(=O)N(Cc3ccc(Cl)cc3)C2)n1 (stereo not shown) | 18.5 |
| O=C1NC(=O)/C(=C\c2cn(Cc3ccccc3F)c3ccccc23)N1 | 12.3 |
| CCCCn1c(N)c(N(CC(C)C)C(=O)C2CC(=O)N(Cc3ccccc3)C2)c(=O)[nH]c1=O (stereo not shown) | 6.31 |
| CC(=O)NC(=S)Nc1ccc(NC(=O)c2cccs2)cc1 | 5.61 |
| Cn1nc(C(=O)Nc2sc3c(c2C#N)CCCC3)ccc1=O | 8.91 |
| CCCOC(=O)c1c(NC(=O)/C=C/c2cnn(C)c2C)sc(C(=O)OCC)c1C | 11.5 |
